In patent EP4722197A1, “SOLID STATE FORMS OF (S)-2-(((S)-6,8-IFLUORO-1,2,3,4-TETRAHYDRONAPHTHALEN-2-YL)AMINO)-N-(1-(2-METHYL-1-(NEOPENTYLAMINO)PROPAN-2-YL)-1H-IMIDAZOL-4-YL)PENTANAMIDE AND USES THEREOF” (Pfizer Inc., priority 2019, dated 2021):

Columns and labels:
[1] = ambient temperature

SMILES: CCC[C@H](N[C@H]1CCc2cc(F)cc(F)c2C1)C(=O)Nc1cn(C(C)(C)CNCC(C)(C)C)cn1
- Solubility Estimate (a) ([1]; ACN/H2O 50/50): 36000 µg/mL (≈ 73.5 mM)
- Solubility Estimate (a) ([1]; Acetone/H2O 30/70): 14000 µg/mL (≈ 28.6 mM)
- Solubility Estimate (a) ([1]; DMA): 8000 µg/mL (≈ 16.3 mM)
- Solubility Estimate (a) ([1]; DMF/ACN 60/40): 3000 µg/mL (≈ 6.13 mM)
- Solubility Estimate (a) ([1]; DMF/H2O 30/70): 17000 µg/mL (≈ 34.7 mM)
- Solubility Estimate (a) ([1]; DMF/H2O 50/50): 24000 µg/mL (≈ 49 mM)
- Solubility Estimate (a) ([1]; DMF/IPA 60/40): 5000 µg/mL (≈ 10.2 mM)
- Solubility Estimate (a) ([1]; DMF/MIBK 80/20): 4000 µg/mL (≈ 8.17 mM)
- Solubility Estimate (a) ([1]; DMF): 18000 µg/mL (≈ 36.8 mM)
- Solubility Estimate (a) ([1]; DMSO): 63000 µg/mL (≈ 129 mM)
- Solubility Estimate (a) ([1]; Dioxane/H2O 50/50, non-cGMP sample): 19000 µg/mL (≈ 38.8 mM)
- Solubility Estimate (a) ([1]; EtOH/H2O 40/60): 10000 µg/mL (≈ 20.4 mM)
- Solubility Estimate (a) ([1]; Ethylene Glycol): 7000 µg/mL (≈ 14.3 mM)
- Solubility Estimate (a) ([1]; IPA/H2O 50/50): 15000 µg/mL (≈ 30.6 mM)
- Solubility Estimate (a) ([1]; MEK/DMF 40/60, non-cGMP sample): 2000 µg/mL (≈ 4.08 mM)
- Solubility Estimate (a) ([1]; MeOH/Acetone 50/50): 6000 µg/mL (≈ 12.3 mM)
- Solubility Estimate (a) ([1]; MeOH/CHCl3 50/50): 13000 µg/mL (≈ 26.5 mM)
- Solubility Estimate (a) ([1]; MeOH/EtOAc 50/50): 2000 µg/mL (≈ 4.08 mM)
- Solubility Estimate (a) ([1]; MeOH/H2O 20/80): 9000 µg/mL (≈ 18.4 mM)
- Solubility Estimate (a) ([1]; MeOH): 19000 µg/mL (≈ 38.8 mM)
- Solubility Estimate (a) ([1]; NMP/Acetone 85/15): 7000 µg/mL (≈ 14.3 mM)
- Solubility Estimate (a) ([1]; NMP/EtOAc 57/43): 1000 µg/mL (≈ 2.04 mM)
- Solubility Estimate (a) ([1]; NMP): 10000 µg/mL (≈ 20.4 mM)
- Solubility Estimate (a) ([1]; PG, non-cGMP sample): 2000 µg/mL (≈ 4.08 mM)
- Solubility Estimate (a) ([1]; TFE (anhydrous)): 10000 µg/mL (≈ 20.4 mM)
- Solubility Estimate (a) ([1]; TFE/MEK 70/30): 2000 µg/mL (≈ 4.08 mM)
- Solubility Estimate (a) ([1]; THF/CHCl3 50/50): 1000 µg/mL (≈ 2.04 mM)
- Solubility Estimate (a) ([1]; THF/H2O 80/20): 24000 µg/mL (≈ 49 mM)
- Solubility Estimate (a) ([1]; THF/H2O 90/10): 4000 µg/mL (≈ 8.17 mM)
- solubility (physchem; acetone): < 1000 µg/mL
- solubility (physchem; acetone/chcl3 50/50): < 1000 µg/mL
- solubility (physchem; acn): < 1000 µg/mL
- solubility (physchem; acn/chcl3 50/50): < 1000 µg/mL
- solubility (physchem; acn/etoac 50/50): < 1000 µg/mL
- solubility (physchem; chloroform): < 1000 µg/mL
- solubility (physchem; dce): < 1000 µg/mL
- solubility (physchem; dioxane): < 1000 µg/mL
- solubility (physchem; dmf/acn 30/70): < 1000 µg/mL
- solubility (physchem; dmf/etoac 50/50): < 1000 µg/mL
- solubility (physchem; dmso/mtbe 10/90): < 1000 µg/mL
- solubility (physchem; etoac): < 1000 µg/mL
- solubility (physchem; etoh): < 1000 µg/mL
- solubility (physchem; etoh/dcm 50/50): < 1000 µg/mL
- solubility (physchem; heptane/chcl3 30/70): < 1000 µg/mL
- solubility (physchem; thf): < 1000 µg/mL
- solubility (physchem; thf/chcl3 25/75): < 1000 µg/mL
- solubility (physchem; thf/chcl3 85/15): < 1000 µg/mL
- solubility (physchem; toluene): < 1000 µg/mL

In brackets after ≈: the same amount, converted by molar mass. Read-outs that look alike come from different tables or passages of the source.
